Source: PubChem BioAssay AID1030 (National Center for Advancing Translational Sciences (NCATS), 2008)
The campaign covered roughly 220,000 compounds. About 16,000 (7.3%) were called active. Inconclusive means that the source gave no clear call. Such entries were picked first, then a sample of the others. Calls come from the whole dose curve; as a rule, active = well fitted inhibition curve with a large enough effect (not every such curve was filed as active); inconclusive = small, poorly fitted or top-dose-only effect, or another doubt; inactive = no such curve, though single readings can be large or run the other way. No potency is given beside an inconclusive call; the fits are too rough.

Molecular target: Aldehyde dehydrogenase 1A1 (Homo sapiens) (UniProt P00352)
Assay: qHTS Assay for Inhibitors of Aldehyde Dehydrogenase 1 (ALDH1A1);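 for activity, negative = inhibition: plate controls were no enzyme wells and a reference inhibitor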
Conditions: Purified ALDH1A1, NADH fluorescence, propionaldehyde substrate; series mostly up to 75.3 µM; activity, negative = inhibition: at the top concentration
Potency is the fitted concentration of half-maximal effect; tags give direction and shape of the fitted curve.

Chain of UniProt P00352 (P00352 whole entry, looked up): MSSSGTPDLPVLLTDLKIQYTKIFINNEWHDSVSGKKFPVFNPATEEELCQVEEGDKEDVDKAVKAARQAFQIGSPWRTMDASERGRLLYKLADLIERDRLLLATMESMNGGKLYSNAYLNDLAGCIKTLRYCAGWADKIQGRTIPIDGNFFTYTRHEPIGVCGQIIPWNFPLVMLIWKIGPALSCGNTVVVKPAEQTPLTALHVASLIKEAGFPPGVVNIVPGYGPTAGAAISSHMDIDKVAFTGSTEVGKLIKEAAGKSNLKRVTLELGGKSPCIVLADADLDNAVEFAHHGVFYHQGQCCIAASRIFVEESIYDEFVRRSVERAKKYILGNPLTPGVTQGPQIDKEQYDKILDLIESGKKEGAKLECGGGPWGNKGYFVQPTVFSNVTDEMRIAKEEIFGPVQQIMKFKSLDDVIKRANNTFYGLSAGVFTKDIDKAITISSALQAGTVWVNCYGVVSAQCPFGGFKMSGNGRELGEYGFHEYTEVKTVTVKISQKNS

Row | SMILES | activity, negative = inhibition | Potency
1 | COC(=O)C1CCN(CC(=O)Nc2cc(Cl)ccc2OC)CC1 | inactive: 9.52% | 
2 | CCOC(=O)N1CCN(C(=O)c2ccc3c(=O)n(-c4ccc(OC)cc4)c(=S)[nH]c3c2)CC1 | inactive: 2.55% | 
3 | COc1cc2ncnc(NCc3cccc(Cl)c3)c2cc1OC | inactive: -3.48% | 
4 | CSc1ccc(/C=N/NC(=O)CN2CCN(Cc3ccccc3)CC2)cc1 |  | inconclusive [inhibitor, single point]
5 | Cc1cc2ccccc2n1CCNC(=O)Cc1ccccc1 | inactive: 6.82% | 
6 | CCOC(=O)c1c(-c2ccc(C)o2)csc1NC(=O)CN(C)CC(=O)Nc1ccc(C)cc1 |  | inconclusive [inhibitor, single point]
7 | C[N+](C)(C)CCCCCC(=O)/C=N/O | inactive: 5.37% | 
8 | C=CCn1cnc2c(c1=O)c1nc3ccccc3nc1n2/N=C/c1cc(OC)c(OC)c(OC)c1 | inactive: -5.54% | 
9 | NNc1nc2ccc(F)cc2s1 |  | inconclusive [inhibitor, single point]
10 | CN(c1cccc(NC(=O)CN(c2cccc(Cl)c2)S(=O)(=O)c2ccc(Cl)cc2)c1)S(C)(=O)=O | inactive: 0.0615% | 
11 | COc1ccc(N2C(=O)CSC2c2ccc3c(c2)OCO3)c(OC)c1 (configuration not stated) | inactive: 4.9% | 
12 | Cc1c(-c2ccccc2)nc(N)c(C#N)c1-c1ccco1 |  | inconclusive [inhibitor, partial curve]
13 | Cn1c(=O)[nH]c(=O)c2c1nc(Br)n2CCSc1nc2ccccc2o1 |  | inconclusive [inhibitor, single point]
14 | C=CCN1C(c2ccc(Br)cc2)=CS/C1=C(/C#N)c1nnc(N2CCOCC2)n1-c1ccccc1 |  | active: 3.16 µM
15 | COc1ccccc1NC(=O)CSCC(=O)N1c2ccccc2CCc2ccccc21 |  | inconclusive [inhibitor, single point]
16 | COc1ccc(C(=O)N2CCN(C3CCC(c4ccccc4)CC3)CC2)cc1OC (configuration not stated) |  | inconclusive [inhibitor, single point]
17 | N=C1C(c2nc3ccccc3c(=O)[nH]2)=C(O)CN1CCO |  | inconclusive [inhibitor, partial curve]
18 | CCSC(=S)c1c(C)[nH]n(-c2ccccc2)c1=O |  | inconclusive [inhibitor, single point]
19 | O=c1oc2ccccc2c2c1nnn2CCO | inactive: -0.993% | 
20 | Cc1cc(=O)oc(C)c1C(=O)NC1CCCCCCC1 |  | inconclusive [inhibitor, single point]
21 | CCN(CC)S(=O)(=O)c1ccc2oc(C(=O)NC(C)C)c(C)c2c1 |  | inconclusive [inhibitor, single point]
22 | COc1cc2c(cc1OC)C(C1C(=O)CC(C)(C)CC1=O)N(C(=O)CCl)CC2 (configuration not stated) |  | inconclusive [inhibitor, partial curve]
23 | CC(C)OCCCN1CN(S(=O)(=O)c2ccc(Cl)cc2)c2nc3ccccc3nc21 |  | active: 28.2 µM
24 | Cc1nc2c([nH]1)C1(CCN(Cc3ccccc3)CC1)C(C#N)=C(N)O2 |  | inconclusive [inhibitor, partial curve]

Row | SMILES | activity, negative = inhibition | Potency
25 | CCOC(=O)c1oc2cc(O)c(CC)cc2c(=O)c1-c1cscn1 | inactive: -13.3% | 
26 | COc1ccc(C(OC(=O)c2ccco2)C(=O)NCc2ccco2)cc1 (configuration not stated) | inactive: -5.92% | 
27 | COc1ccc2nc(NCCCNC(=O)c3cc(OC)c(OC)c(OC)c3)c(C#N)cc2c1 |  | inconclusive [inhibitor, single point]
28 | COc1cccc(NC(=O)COC(=O)c2ccc(S(=O)(=O)NCc3ccco3)cc2)c1 | inactive: 5.02% | 
29 | COc1ccc(OC)c(-n2nnnc2SCC(=O)Nc2ccc3c(c2)OCCO3)c1 |  | active: 0.0631 µM
30 | COc1cc(OC)cc(C(=O)NC(=S)Nc2cccnc2)c1 |  | inconclusive [inhibitor, single point]
31 | CCOC(=O)NC(NC(=S)Nc1ccccc1[N+](=O)[O-])C(Cl)(Cl)Cl (configuration not stated) |  | inconclusive [inhibitor, single point]
32 | Clc1ccccc1/C=N/NC1=Nc2cccc3cccc1c23 | inactive: -9.87% | 
33 | CCn1c2ccccc2c2cc(CNCc3ccc(OC)cc3OC)ccc21 |  | inconclusive [inhibitor, single point]
34 | Cc1cc(C)c(NC(=O)/C=C\C(=O)O)c([N+](=O)[O-])c1 |  | active: 10 µM
35 | Cc1ccc(C)n1-c1ccc(C(=O)N/N=C/c2ccncc2)cc1 |  | active: 17.8 µM
36 | CCOC(=O)C1=C(N)OC2=C(C(=O)CC(C)(C)C2)C1c1ccc(CC)s1 (configuration not stated) | inactive: 6.01% | 
37 | CCOC(=O)c1sc(NC(=O)c2cc(-c3ccc(C)cc3)nc3ccccc23)c(C#N)c1C |  | inconclusive [inhibitor, partial curve]
38 | Cc1ccc(-c2nc3ccccc3o2)cc1NC(=O)c1ccc2c(c1)OCO2 |  | inconclusive [inhibitor, single point]
39 | NC(=O)CSCc1nc2ccccc2s1 |  | active: 7.94 µM
40 | COc1ccc(C(=O)N(CN2CCCC2=O)c2ccc(C)cc2)cc1 |  | inconclusive [inhibitor, partial curve]
41 | Cc1ccc(N/C=C(\C2OC(=O)c3ccccc32)[N+](=O)[O-])c(C)c1 (configuration not stated) |  | active: 3.55 µM
42 | O=C(NCC1COc2ccccc2O1)c1ccccc1 (configuration not stated) | inactive: 7.83% | 
43 | COc1ccc(NC(=O)CC2C(=O)N(Cc3ccco3)C(=S)N2C(C)C)cc1 (configuration not stated) |  | inconclusive [inhibitor, single point]
44 | CCCCOC(=O)c1ccc(NC(=S)NC(=O)c2c(Cl)cnn2C)cc1 |  | inconclusive [inhibitor, single point]
45 | COc1cc(OC)cc(C(=O)N[C@H](C(=O)OCC(=O)Nc2ccc(C(C)C)cc2)C(C)C)c1 |  | inconclusive [inhibitor, single point]
46 | COc1ccc(NC(=O)COc2nsnc2N2CCOCC2)cc1 |  | inconclusive [inhibitor, single point]
47 | CN1CCN(c2ncc3nc(-c4cccc(C#N)c4)c(=O)n(C)c3n2)CC1 |  | inconclusive [inhibitor, partial curve]
48 | O=C(O)CCCC(=O)NS(=O)(=O)c1ccc(Cl)cc1 | inactive: -0.263% | 

Row | SMILES | activity, negative = inhibition | Potency
49 | Cc1ccc(-c2cc(C(=O)Nc3sc4c(c3C(=O)NCc3ccco3)CCC4)[nH]n2)c(O)c1 |  | inconclusive [inhibitor, full curve]
50 | CS(=O)(=O)N(CC(=O)NCc1ccccn1)Cc1ccc(Cl)cc1 |  | active: 7.94 µM
51 | C/C(=N\Nc1cccc2cccnc12)c1ccc[nH]1 |  | inconclusive [inhibitor, single point]
52 | O=C1CN2CCN(CC2)CC(=O)Nc2ccc(cc2)S(=O)(=O)c2ccc(cc2)NC(=O)CN2CCN(CC2)CC(=O)Nc2ccc(cc2)S(=O)(=O)c2ccc(cc2)N1 |  | active: 1.58 µM
53 | Cc1csc(NC(=O)Nc2ccccc2[N+](=O)[O-])n1 |  | inconclusive [inhibitor, single point]
54 | CCOC(=O)C1CCN(c2nc3ccccc3nc2C(C#N)C(=O)OC(C)C)CC1 (configuration not stated) |  | inconclusive [inhibitor, full curve, poor fit]
55 | Cc1ccc(S(=O)(=O)/C=C2\NC(=O)CS2)cc1 |  | inconclusive [inhibitor, partial curve]
56 | CC(=Nc1ccccc1)Nc1ccccc1 | inactive: 2.35% | 
57 | COC(=O)Cn1c(=O)c(C)nc2ccccc21 |  | inconclusive [inhibitor, single point]
58 | CNC(=O)CN(C)S(=O)(=O)c1ccc(OC)c(Cl)c1 |  | inconclusive [inhibitor, single point]
59 | COc1ccc(-c2nc(-c3ccccc3)no2)c(OC)c1 |  | inconclusive [inhibitor, single point]
60 | COc1ccc(Cn2cccc(NC(=O)Nc3cccc(C#N)c3)c2=O)cc1 |  | inconclusive [inhibitor, single point]
61 | O=C(O)CC1(CC(=O)Nc2ccc(F)cc2F)CCCCC1 |  | inconclusive [inhibitor, partial curve]
62 | COc1ccc(N(C)S(=O)(=O)c2cccc(C(=O)NC3CCC(C)CC3)c2)cc1 (configuration not stated) |  | inconclusive [inhibitor, partial curve]
63 | COC(=O)c1cccc(NC(=O)c2nn(C)c(=O)c3ccccc23)c1 |  | inconclusive [inhibitor, partial curve]
64 | CSc1ccccc1NC(=O)c1ccc([N+](=O)[O-])cc1 |  | active: 14.1 µM
65 | CCN(c1ccccc1)S(=O)(=O)c1cccc(C(=O)O)c1 | inactive: 13.3% | 
66 | N#Cc1nc(-c2ccco2)oc1NCc1ccc(F)cc1 |  | inconclusive [inhibitor, single point]
67 | CCC(C(=O)O)C1CCC(C)C(C(C)C(O)C(C)C(=O)C(CC)C2OC3(C=CC(O)[C@@]4(CC[C@](C)(C5CC[C@@](O)(CC)C(C)O5)O4)O3)C(C)CC2C)O1 (some centres not stated) | inactive: 3.39% | 
68 | Cc1nn(C(=O)c2ccco2)c(C)c1Sc1ccc(Cl)cc1 |  | inconclusive [inhibitor, single point]
69 | NNc1ncnc2sc3c(c12)CCC3 |  | inconclusive [inhibitor, single point]
70 | CCc1cc(=O)oc2cc(C)cc(OCC(=O)C(C)(C)C)c12 |  | inconclusive [inhibitor, partial curve]
71 | COc1cc2c(C)nc3c(c(C)nn3-c3ccccc3)c2cc1OC |  | inconclusive [inhibitor, partial curve]
72 | Cc1c(Cl)cccc1-n1c(SCC(=O)N2CCC(C(=O)O)CC2)nnc1-c1ccncc1 | inactive: -1.94% | 
